The campaign covered roughly 94,000 compounds. About 4,000 (4.3%) were called active. The shares of active, inactive and inconclusive entries below differ from those in the screen. Calls follow the shape of the dose curve; as a rule, active = well fitted inhibition curve with a large enough effect; inconclusive = small, poorly fitted or top-dose-only effect; inactive = no such curve, though single readings can be large or run the other way. A potency beside an inconclusive call is a rough fit, not a confirmed value.
Experiment: Cytotoxic Profiling in NIH 3T3 Cell Line of Diverse Libraries Using Quantitative High-Throughput Screening; also: nearly all actives have a fitted effect of over 55% in size
Details: NIH 3T3 viability, CellTiter-Glo ATP luminescence, 48-72 h; activity change, negative = cytotoxicity: at 96.7 µM (top of the series) unless noted; series mostly up to 96.7 µM
Summary of the method: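 Viability of NIH 3T3 cells after 48 or 72 hr compound treatment at 37 °C was assessed by CellTiter-Glo, with luminescence imaged following a 10 min room-temperature step.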
With `COCCCNC(=O)C1CCCN(c2nccc(Nc3ccccc3F)n2)C1` (stereo not given) the Potency was inconclusive: 44.7 µM [inhibitor, partial curve, poor fit].
For `O=C(NCC1CC1)[C@@H]1CCCN1c1nccc(Nc2ccccc2Cl)n1`, the Potency was inconclusive: 28.2 µM [inhibitor, full curve, poor fit].
In the case of `COc1ccc(-c2cc3[nH]ccc3c(C(=O)NCc3c(C)cc(C)[nH]c3=O)n2)cc1`, the Potency is reported as inconclusive: 31.6 µM [inhibitor, full curve].
For `COc1ccc(C(=O)NC2CCCc3c2[nH]c2ccccc32)cc1OC` (stereo not given), the Potency was inconclusive: 50.1 µM [inhibitor, single point].
For `CC(=O)Nc1cccc(-c2ccc3c(n2)CN(Cc2ccccc2F)C(=O)CO3)c1`, the Potency was inconclusive: 89.1 µM [inhibitor, partial curve, poor fit].
For `COc1ccc(CN2CC[C@@H]3[C@H]2C(=O)NC[C@H](CCC(=O)NCc2cccs2)N3C)cc1`, the “activity change, negative = cytotoxicity” value was inactive: 1.14%.
For `CC(C)c1nc(N2CCOCC2)ncc1C(=O)O`, the Potency was inconclusive: 50.1 µM [inhibitor, partial curve, poor fit].
In the case of `Cc1cc(NCCc2cnccn2)nc(-c2ccccc2O)n1`, the Potency is reported as inconclusive: 28.2 µM [inhibitor, partial curve, poor fit].
With `COc1cccc(Nc2ncc3c(n2)C(C)(C(=O)NCc2cccnc2)CC3)c1` (stereo not given) the Potency was inconclusive: 22.4 µM [inhibitor, full curve, poor fit].
With `COCc1nc(-c2ccc(OC3CNC3)cc2)no1` the “activity change, negative = cytotoxicity” value was inactive: -1.51%.
With `O=C(Cn1cccc1-c1nc(-c2ccc3c(c2)OCO3)no1)Nc1ccc2c(c1)OCCO2` the “outcome” value was “inactive”.
For `Fc1ccccc1Nc1cnc2ccc(-c3ccccc3)nn12`, the Potency was inconclusive: 56.2 µM [inhibitor, partial curve, poor fit].
With `CCOc1ccccc1CN1C[C@@H](CO)[C@H](NC(=O)C2CC2)C1` the “activity change, negative = cytotoxicity” value was inactive: -9.09%.
With `COc1ccc(-c2cc(N3CCCN(C(=O)c4ccc(OC)cc4OC)CC3)n[nH]2)cc1` the Potency was inconclusive: 44.7 µM [inhibitor, partial curve, poor fit].
With `COc1ccc2c3c1CN(C)CC3=CC(C)(C)CO2` the Potency was inconclusive: 39.8 µM [inhibitor, partial curve].
With `CCOc1ccccc1NC(=O)C1CN(S(=O)(=O)C2CC2)CC12CCCCC2` (stereo not given) the Potency was inconclusive: 50.1 µM [inhibitor, partial curve, poor fit].
With `O=C(CCn1cnnn1)N1CCC(N2C(=O)C3(CCCC3)C2c2ccccc2)CC1` (stereo not given) the Potency was inconclusive: 50.1 µM [inhibitor, partial curve, poor fit].
In the case of `Cc1ccc(-n2nc3n(c2=O)CCN(C(=O)c2cccc(Cl)c2)C3)cc1`, the Potency is reported as inconclusive: 50.1 µM [inhibitor, partial curve, poor fit].
For `Cc1nc(C2CC(O)C2)cc(N2CCN(c3ccc(F)c(Cl)c3)CC2)n1` (stereo not given), the Potency was inconclusive: 31.6 µM [inhibitor, partial curve, poor fit].
For `O=C(Nc1ccccc1)N1CCC(OCCOc2cccnc2)CC1`, the “activity change, negative = cytotoxicity” value was inactive: -9.4%.
For `O=C(NC1CCN(Cc2ccc(-c3ccsc3)cc2)C1)c1ccccn1` (stereo not given), the Potency was inconclusive: 44.7 µM [inhibitor, partial curve, poor fit].
With `CN(CCC(O)c1ccccc1)c1nccc(-c2cccnc2)n1` (stereo not given) the Potency was inconclusive: 50.1 µM [inhibitor, partial curve, poor fit].
In the case of `CCc1ccccc1NC(=O)CN1C(=O)C(c2ccccc2)=NC12CCCCCC2`, the Potency is reported as inconclusive: 50.1 µM [inhibitor, partial curve, poor fit].
With `Cn1nc(C2CCN(C(=O)c3ccc4ncccc4c3)CC2)c2c1CCOC2` the “activity change, negative = cytotoxicity” value was inactive: -20.6%.
With `CN(Cc1ccccc1)C(=O)C[C@@H]1c2nc(NC(=O)CC(C)(C)C)sc2C[C@@H]2[C@](C)(CO)[C@H](O)CC[C@]21C` the Potency was inconclusive: 50.1 µM [inhibitor, partial curve, poor fit].
For `Cc1nn(-c2ccccc2)c2c1C(C(C)C)N(C1CCCN(C(=O)Nc3ccccc3F)C1)C2=O` (stereo not given), the Potency was inconclusive: 39.8 µM [inhibitor, partial curve].
With `Cc1nn(-c2ccccc2)c2c1C(C)N(CC1CN(C(=O)NC(C)C)C1)C2=O` (stereo not given) the “activity change, negative = cytotoxicity” value was inactive: -20.3%.
With `COCCCNC(=O)CCN(CCC(C)C)C(=O)c1cc(C)oc1C` the “activity change, negative = cytotoxicity” value was inactive: -6.62%.
With `NS(=O)(=O)CCCC(=O)N1CCCC(CCc2ccccc2F)C1` (stereo not given) the Potency was inconclusive: 35.5 µM [inhibitor, partial curve, poor fit].
In the case of `O=C(NCc1ccc(F)cc1F)C1CCCCN1Cc1ccc(-c2ccsc2)cc1` (stereo not given), the Potency is reported as inconclusive: 31.6 µM [inhibitor, full curve, poor fit].
With `COc1ccc(NC(=O)N2C[C@@H](F)C[C@H]2C(=O)N2CCCCC2)cc1F` the “activity change, negative = cytotoxicity” value was inactive: 0.806%.
In the case of `Cc1csc(S(=O)(=O)N2CCCC3(CCC(=O)N(CC4CC4)C3)C2)c1` (stereo not given), the Potency is reported as inconclusive: 89.1 µM [inhibitor, partial curve, poor fit].
In the case of `O=C(c1nc2ccccc2[nH]1)N1CCNc2cnc(Nc3ccc(-n4ccnc4)cc3)nc2C1`, the Potency is reported as inconclusive: 35.5 µM [inhibitor, partial curve].
In the case of `COCCNC(=O)C1COC2(CCN(C(=O)c3ccc(OC)cc3)CC2)N1C(=O)c1ccccc1C` (stereo not given), the Potency is reported as inconclusive: 79.4 µM [inhibitor, single point].
In the case of `CCCCc1nn(CC(=O)N2CCC(c3ccccc3)CC2)c(=O)n1CC`, the “activity change, negative = cytotoxicity” value is reported as inactive: -23%.
In the case of `Cc1ccc(-c2nc(C(=O)N3CCN(c4ccccc4)CC3)no2)cc1`, the Potency is reported as inconclusive: 70.8 µM [inhibitor, single point].
With `N#Cc1ccc(S(=O)(=O)N2CCC(C3CCNC3)CC2)cc1` (stereo not given) the “activity change, negative = cytotoxicity” value was inactive: -18.7%.
With `COc1ccc(OC)c(NC(=O)N2CCc3nc(-c4ccccc4)[nH]c3C2)c1` the Potency was inconclusive: 3.55 µM [inhibitor, full curve, poor fit].
With `Cn1nc(C2CCCN2)c2c(C(=O)NCc3ccc(F)cc3)cc(C3CC3)nc21` (stereo not given) the Potency was inconclusive: 70.8 µM [inhibitor, single point].
For `COc1cccc(NC(=O)Nc2cccc(-c3ccc(N4CCOCC4)nn3)c2)c1`, the Potency was inconclusive: 50.1 µM [inhibitor, partial curve, poor fit].
% is scaled to controls: 0 for no effect and ±100 for the full control effect; potency is read from the fitted curve at half-maximal effect; tags tell the direction and shape of the fitted curve.
